Experimental data from PubChem BioAssay AID624170 (National Center for Advancing Translational Sciences (NCATS), 2012).
Where “and” joins values, the source holds several entries; their conditions need not be identical. Equal values may be shown once. The campaign covered roughly 410,000 compounds. About 850 (0.21%) were called active. Inconclusive means that the source gave no clear call. Such entries were picked first, then a sample of the others. Calls come from the whole dose curve; as a rule, active = well fitted inhibition curve with a large enough effect; inconclusive = small, poorly fitted or top-dose-only effect, or another doubt; inactive = no such curve, though single readings can be large or run the other way. Where the call is inconclusive, the potency comes from a doubtful curve fit.

Target: Glutaminase kidney isoform, mitochondrial (Homo sapiens) (UniProt O94925)
UniProt O94925, sequence (O94925 whole entry, looked up, canonical isoform): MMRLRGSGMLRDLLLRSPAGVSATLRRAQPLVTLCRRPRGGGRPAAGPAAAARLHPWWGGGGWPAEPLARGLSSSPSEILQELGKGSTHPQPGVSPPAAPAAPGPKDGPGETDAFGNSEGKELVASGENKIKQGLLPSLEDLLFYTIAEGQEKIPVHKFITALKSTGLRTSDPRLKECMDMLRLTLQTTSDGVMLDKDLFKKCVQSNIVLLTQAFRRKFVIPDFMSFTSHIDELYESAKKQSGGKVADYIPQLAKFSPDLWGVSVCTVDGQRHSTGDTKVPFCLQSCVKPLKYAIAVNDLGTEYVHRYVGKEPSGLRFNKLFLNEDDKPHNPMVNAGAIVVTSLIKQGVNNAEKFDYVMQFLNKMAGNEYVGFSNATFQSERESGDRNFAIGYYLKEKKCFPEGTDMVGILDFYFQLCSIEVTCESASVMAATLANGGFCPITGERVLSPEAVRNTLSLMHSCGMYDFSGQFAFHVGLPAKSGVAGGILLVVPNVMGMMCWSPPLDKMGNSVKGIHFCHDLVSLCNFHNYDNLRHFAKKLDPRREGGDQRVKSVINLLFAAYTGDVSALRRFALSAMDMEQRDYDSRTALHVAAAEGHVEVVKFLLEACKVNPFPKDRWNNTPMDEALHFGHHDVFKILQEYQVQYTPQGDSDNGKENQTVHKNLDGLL
Assay: qHTS for Inhibitors of Glutaminase (GLS)
Conditions: GLS enzymatic activity, qHTS titration; series mostly up to 45.5 µM
Summary of the method: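 Enzyme dispensed in phosphate buffer (45 mM, pH 8.2, 0.02% Tween-20), compounds pinned in, then 1 mM L-glutamine solution and the glutamate oxidase–HRP–Amplex Red mix added; fluorescence read immediately and again after 30 min at room temperature.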
Potency is the fitted concentration of half-maximal effect; tags give direction and shape of the fitted curve.

| SMILES | Potency |
| --- | --- |
| O=C(Cn1nc(CNc2ccc(Cl)cc2)[n+]2c1CCCCC2)c1ccc(Cl)cc1 | inconclusive: 35.5 µM [inhibitor, single point] |
| CCc1ccc2c(CN3CCC(C(=O)OC)CC3)cc(=O)oc2c1 | inactive |
| Cc1cc(C)n(C(C)CNC(=O)c2ccc3c(c2)OCO3)n1 (stereo not given) | inconclusive: 35.5 µM [inhibitor, single point] |
| O=C(N/N=C/C=C/c1ccccc1[N+](=O)[O-])c1cc(-c2ccccc2)n[nH]1 | inactive |
| C=Cc1c(C)c2cc3[nH]c(cc4nc(cc5nc(cc1[nH]2)C(C)=C5CCC(=O)O)C(CCC(=O)O)=C4C)c(C)c3C=C | inconclusive: 25.1 µM [inhibitor, partial curve, poor fit] and inconclusive: 2.51 µM [inhibitor, full curve] and inconclusive: 2.82 µM [inhibitor, partial curve, poor fit] |
| CC(C)NS(=O)(=O)c1ccc(OCC(=O)Nc2ccc3c(c2)OCCO3)cc1 | inconclusive: 5.62 µM [inhibitor, single point] |
| CC(=O)N1CC[n+]2c(-c3ccc(Cl)cc3Cl)csc21 | inactive |
| COC(=O)c1ccc2c(=O)n(CCCCCC(=O)N3CCN(c4ccc(OC)cc4)CC3)c(=O)[nH]c2c1 | inconclusive: 10 µM [inhibitor, partial curve] |
| c1ccc(-c2nnc(N3CCN(c4ccccn4)CC3)c3ccccc23)cc1 | inactive |
| COc1ccc(-n2c(-c3ccc(C(C)(C)C)cc3)n[nH]c2=S)c(OC)c1 | inconclusive: 11.2 µM [inhibitor, partial curve] |
| CO/N=C(\C(=O)N[C@@H]1C(=O)N2C(C(=O)[O-])=C(C[n+]3cccc4c3CCCC4)CS[C@H]12)c1csc(N)n1 | active: 6.31 µM |
| Nc1ccccc1C(=O)NCc1ccccc1 | inconclusive: 35.5 µM [inhibitor, single point] |
| NS(=O)(=O)c1ccc(CCNC(=O)c2ccc3nccnc3c2)cc1 | inconclusive: 20 µM [inhibitor, partial curve, poor fit] |
| Cc1cc(C2=NNC(=NC3CC3)SC2)c(C)n1-c1ccccc1F | inactive |
| COC(=O)c1ccccc1NC(=O)CCS(=O)(=O)c1ccc(Br)cc1 | inconclusive: 35.5 µM [inhibitor, single point] |
| O=C(/C=C/c1ccc(Br)o1)OCc1nc2ccsc2c(=O)[nH]1 | inconclusive: 3.98 µM [inhibitor, partial curve] |
| CNC(=O)NNC(=O)c1onc(-c2c(Cl)cccc2Cl)c1C(=O)OC | inconclusive: 10 µM [inhibitor, partial curve, poor fit] |
| Cc1ccc(-n2nc(C)c3c2NC2=C(C(=O)CC(C)(C)C2)C3c2ccccc2OCC(=O)O)cc1 (stereo not given) | inconclusive: 11.2 µM [inhibitor, partial curve] |
| Cc1ccc(NS(=O)(=O)c2ccc(N3CCN(c4ccc(O)cc4)CC3)c([N+](=O)[O-])c2)c(C)c1 | inconclusive: 6.31 µM [inhibitor, full curve] |
| CC1(C)CC(=O)C=C(c2ccc(-c3cnc4ccccc4c3)cc2)C1=O | inactive |

| SMILES | Potency |
| --- | --- |
| CCN(CC)CCN=C1CCCc2ccccc2N1 | inconclusive: 5.62 µM [inhibitor, single point] |
| COc1ccc(Nc2nc(-c3ccc(OC)cc3)c(CCC(=O)O)s2)cc1 | inconclusive: 25.1 µM [inhibitor, single point] |
| CCN(CC)C(=O)CSc1nc2ccccc2c(=O)n1-c1cccc(OC)c1 | inactive |
| Cc1ccn2cc(CCNC(=O)COc3ccccc3)nc2c1 | inactive |
| CCc1cccc(NC(=O)c2ccc(CNS(=O)(=O)c3ccc4c(c3)C(C)(C)C(=O)N4C)cc2)c1 | inactive |
| CCN(CC)S(=O)(=O)c1ccc(-c2csc(C)n2)cc1 | inconclusive: 28.2 µM [inhibitor, single point] |
| CCC(CC)c1nnc(NC(=O)CS(=O)(=O)c2ccc(C)cc2)s1 | inconclusive: 35.5 µM [inhibitor, partial curve, poor fit] |
| N#Cc1ccccc1OCCCN1CCC(C(O)(c2ccccc2)c2ccccc2)CC1 | inconclusive: 35.5 µM [inhibitor, single point] |
| Cc1cc(O)ccc1Nc1nc(-c2cccnc2)cs1 | inconclusive: 12.6 µM [inhibitor, partial curve] |
| Cc1ccc(-c2nc3cc(C(C)C)ccc3o2)cc1NC(=O)c1cc([N+](=O)[O-])ccc1N1CCOCC1 | inactive |
| COc1ccc([C@@H]2CC(=O)c3c(O)cc(O[C@@H]4O[C@H](CO[C@@H]5O[C@@H](C)[C@H](O)[C@@H](O)[C@H]5O)[C@@H](O)[C@H](O)[C@H]4O)cc3O2)cc1O | inconclusive: 22.4 µM [inhibitor, single point] |
| O=C(NCC1CC1)c1ccc2nc([C@@H]3O[C@H](CO)[C@H](O)[C@H](O)[C@H]3O)[nH]c2c1 | inconclusive: 7.94 µM [inhibitor, partial curve, poor fit] |
| CCSc1nnc(-c2ccccc2SC)o1 | inactive |
| CC1=CC(=O)C(Sc2ccc(C)cc2)=CC1=O | inconclusive: 35.5 µM [inhibitor, single point] |
| OCC1CCCN(Cc2ccc(-c3ccccc3)cc2)C1 (stereo not given) | inactive |
| Fc1ccc(/C=N/n2c(-c3cccs3)n[nH]c2=S)cc1 | inconclusive: 22.4 µM [inhibitor, single point] |
| Cc1nnc(N/N=C/c2cccc(C(F)(F)F)c2)n1N | inconclusive: 35.5 µM [inhibitor, single point] |
| CCOC(=O)C1C(=O)N(C(=O)c2cncc(Br)c2)CC1c1ccccc1 (stereo not given) | inconclusive: 35.5 µM [inhibitor, single point] |
| Cc1cc([N+](=O)[O-])nn1CCCC(=O)Nc1cc(Oc2ccc(F)cc2)cc([N+](=O)[O-])c1 | inactive |
| CCOC(=O)c1sc(=NC(=O)c2ccc(OC)c(OC)c2)n(C)c1C | inconclusive: 25.1 µM [inhibitor, single point] |
